Measured values reported in the supplement of paper PMC4604168 (melanoma cell lines).
The list shows a part of the results. Many values rest on one well or one pass, so single values are uncertain.
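Also: cell number obtained by counting DAPI-stained nuclei in high-throughput microscope images with image analysis software, screen run in 1,536-well plates.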

Each compound was assayed on RVH-421 (assay: cell count relative to DMSO control; melanoma cells; higher = more viable cells). Details: library dose: low library concentration; 72 h.
`Cc1cn(-c2cc(NC(=O)c3ccc(C)c(Nc4nccc(-c5cccnc5)n4)c3)cc(C(F)(F)F)c2)cn1` [nilotinib] + O=C1NC(=O)/C(=C/c2ccc(-c3ccc(F)cc3O)o2)S1 [AS252424] (first compound 0.2 µM, partner dose 1 µM) was tested, and the cell count was 111%. Work on `CC(C)C[C@H](NC(=O)[C@H](Cc1ccccc1)NC(=O)c1cnccn1)B(O)O` [Bortezomib] + Cn1cc(/C=C2\C(=O)Nc3cccnc32)c2ccccc21 [GW441756] (first compound 0.001 µM, partner dose 0.4 µM) yielded a cell count of 36.6%. With `Cc1cc(Nc2cc(N3CCN(C)CC3)nc(/C=C/c3ccccc3)n2)n[nH]1` + COc1ccc(COc2ccc(Cc3cnc(N)nc3N)cc2OC)cc1 [GW2580] (first compound 0.04 µM, partner dose 1 µM) the cell count was 114%. `Cc1cn(-c2cc(NC(=O)c3ccc(C)c(Nc4nccc(-c5cccnc5)n4)c3)cc(C(F)(F)F)c2)cn1` [nilotinib] + COc1cc(N2CCC(N3CCN(C)CC3)CC2)ccc1Nc1ncc(Cl)c(Nc2ccccc2S(=O)(=O)C(C)C)n1 [NVP-TAE684] (first compound 0.2 µM, partner dose 0.08 µM) was tested, and the cell count was 97.3%. `CC(C)C[C@H](NC(=O)[C@H](Cc1ccccc1)NC(=O)c1cnccn1)B(O)O` [Bortezomib] + O=C1NC(=O)/C(=C/c2ccc(-c3ccc(F)cc3O)o2)S1 [AS252424] (first compound 0.001 µM, partner dose 1 µM) was tested, and the cell count was 45.8%. For `Cc1cc(Nc2cc(N3CCN(C)CC3)nc(/C=C/c3ccccc3)n2)n[nH]1` + CCCCCCCCCCCC1=C(O)C(=O)C=C(O)C1=O [Embelin] (first compound 0.04 µM, partner dose 1.2 µM), the cell count was 107%. `Cn1c(=O)n(-c2ccc(C(C)(C)C#N)cc2)c2c3cc(-c4cnc5ccccc5c4)ccc3ncc21` + Cc1cc(N2CCOCC2)cc2[nH]c(-c3c(NC[C@@H](O)c4cccc(Cl)c4)cc[nH]c3=O)nc12 [BMS536924] (first compound 0.004 µM, partner dose 0.2 µM) showed a cell count of 87%. `Cc1cc(Nc2cc(N3CCN(C)CC3)nc(/C=C/c3ccccc3)n2)n[nH]1` + C=CCn1c(=O)c2cnc(Nc3ccc(N4CCN(C)CC4)cc3)nc2n1-c1cccc(C(C)(C)O)n1 [MK1775] (first compound 0.04 µM, partner dose 0.02 µM) gave a cell count of 103%. `CC(C)C[C@H](NC(=O)[C@H](Cc1ccccc1)NC(=O)c1cnccn1)B(O)O` [Bortezomib] + COC(=O)c1sccc1S(=O)(=O)Nc1ccc(Nc2ccccc2)cc1OC [GSK0660] (first compound 0.001 µM, partner dose 1 µM) gave a cell count of 53.8%. In the case of `Cc1cn(-c2cc(NC(=O)c3ccc(C)c(Nc4nccc(-c5cccnc5)n4)c3)cc(C(F)(F)F)c2)cn1` [nilotinib] + O=C(Nc1ccccc1)c1cc([N+](=O)[O-])ccc1Cl [GW9662] (first compound 0.2 µM, partner dose 2 µM), the cell count is reported as 96.5%. `CC(C)C[C@H](NC(=O)[C@H](Cc1ccccc1)NC(=O)c1cnccn1)B(O)O` [Bortezomib] + C=CCn1c(=O)c2cnc(Nc3ccc(N4CCN(C)CC4)cc3)nc2n1-c1cccc(C(C)(C)O)n1 [MK1775] (first compound 0.001 µM, partner dose 0.02 µM) was tested, and the cell count was 64.1%. Work on `Cc1cn(-c2cc(NC(=O)c3ccc(C)c(Nc4nccc(-c5cccnc5)n4)c3)cc(C(F)(F)F)c2)cn1` [nilotinib] + CN(C)S(=O)(=O)c1ccc2c(c1)/C(=C/c1cc3c([nH]1)CCCC3)C(=O)N2 [SU6656] (first compound 0.2 µM, partner dose 0.4 µM) yielded a cell count of 82.4%. Compound `Cc1cc(Nc2cc(N3CCN(C)CC3)nc(/C=C/c3ccccc3)n2)n[nH]1` + CC1(C)NC(=O)N(c2ccc([N+](=O)[O-])c(C(F)(F)F)c2)C1=O [nilutamide] (first compound 0.04 µM, partner dose 1 µM) has a cell count of 124%. With `Cn1c(=O)n(-c2ccc(C(C)(C)C#N)cc2)c2c3cc(-c4cnc5ccccc5c4)ccc3ncc21` + O=C(O)c1ccc(-c2c[nH]c3ncc(-c4ccccc4)cc23)cc1C1CCCC1 [GSK650394] (first compound 0.004 µM, partner dose 0.16 µM) the cell count was 97.9%. For `Cc1cn(-c2cc(NC(=O)c3ccc(C)c(Nc4nccc(-c5cccnc5)n4)c3)cc(C(F)(F)F)c2)cn1` [nilotinib] + Cc1ccc(NC(=O)c2cccc(N(C)C)c2)cc1NC(=O)c1ccc(O)cc1 [ZM336372] (first compound 0.2 µM, partner dose 2 µM), the cell count was 91.9%. `Cc1cc(Nc2cc(N3CCN(C)CC3)nc(/C=C/c3ccccc3)n2)n[nH]1` + O=C(O)C(=O)Nc1sc2c(c1C(=O)O)CCNC2 [TCS401] (first compound 0.04 µM, partner dose 1.66667 µM) gave a cell count of 107%. Work on `CC(C)C[C@H](NC(=O)[C@H](Cc1ccccc1)NC(=O)c1cnccn1)B(O)O` [Bortezomib] + COc1cc(Nc2ncc(F)c(Nc3ccc4c(n3)NC(=O)C(C)(C)O4)n2)cc(OC)c1OC [Tamatinib] (first compound 0.001 µM, partner dose 0.4 µM) yielded a cell count of 60%. `Cc1cc(Nc2cc(N3CCN(C)CC3)nc(/C=C/c3ccccc3)n2)n[nH]1` + Cc1cc(N2CCOCC2)cc2[nH]c(-c3c(NC[C@@H](O)c4cccc(Cl)c4)cc[nH]c3=O)nc12 [BMS536924] (first compound 0.04 µM, partner dose 0.2 µM) showed a cell count of 89.3%. `Cc1cn(-c2cc(NC(=O)c3ccc(C)c(Nc4nccc(-c5cccnc5)n4)c3)cc(C(F)(F)F)c2)cn1` [nilotinib] + COc1cc2ncnc(Nc3ccc(Oc4ccccc4)cc3)c2cc1OC [SrcI1] (first compound 0.2 µM, partner dose 2 µM) was tested, and the cell count was 103%. For `COc1ccc(C2=N[C@@H](c3ccc(Cl)cc3)[C@@H](c3ccc(Cl)cc3)N2C(=O)N2CCNC(=O)C2)c(OC(C)C)c1` [Nutlin-3] + CN(NC(=O)CC(=O)NN(C)C(=S)c1ccccc1)C(=S)c1ccccc1 [STA4783] (first compound 0.1 µM, partner dose 0.006 µM), the cell count was 75.4%. `Cc1cc(Nc2cc(N3CCN(C)CC3)nc(/C=C/c3ccccc3)n2)n[nH]1` + COc1ccc(-c2ccc3c(N4CCOCC4)nc(N4C[C@@H](C)O[C@@H](C)C4)nc3n2)cc1CO [KU0063794] (first compound 0.04 µM, partner dose 0.02 µM) showed a cell count of 116%. Work on `Cn1c(=O)n(-c2ccc(C(C)(C)C#N)cc2)c2c3cc(-c4cnc5ccccc5c4)ccc3ncc21` + C[C@@H]1CCN(C(=O)CC#N)C[C@@H]1N(C)c1ncnc2[nH]ccc12 [CP690550] (first compound 0.004 µM, partner dose 1 µM) yielded a cell count of 87%. `Cc1cn(-c2cc(NC(=O)c3ccc(C)c(Nc4nccc(-c5cccnc5)n4)c3)cc(C(F)(F)F)c2)cn1` [nilotinib] + C[C@@H]1CCN(C(=O)CC#N)C[C@@H]1N(C)c1ncnc2[nH]ccc12 [CP690550] (first compound 0.2 µM, partner dose 1 µM) was tested, and the cell count was 84.6%. Work on `Cn1c(=O)n(-c2ccc(C(C)(C)C#N)cc2)c2c3cc(-c4cnc5ccccc5c4)ccc3ncc21` + NC(=O)Nc1cc(-c2cccc(F)c2)sc1C(=O)N[C@H]1CCCNC1 [AZD7762] (first compound 0.004 µM, partner dose 0.02 µM) yielded a cell count of 86.1%.
